# Laboratory results reported in PubChem BioAssay AID2675 (National Center for Advancing Translational Sciences (NCATS), 2010).
# Screen size: about 280,000 compounds; about 100 (0.036%) were called active. The inconclusive results got no clear call from the source; some entries with a clear call stand among them for comparison. Calls come from the whole dose curve; as a rule, active = well fitted inhibition curve with a large enough effect in the signal ratio, with a control signal flat (not every such curve was filed as active); inconclusive = small, poorly fitted or top-dose-only effect, or effect the other way, or a change in a side signal; inactive = no such curve, though single readings can be large or run the other way; the % refers to the signal ratio. Potencies beside an inconclusive call are fits to weak or partial responses and may not hold up. A note “side channel” means that the fit belongs to a control or component signal, not to the main read-out.
# Target: Muscleblind-like protein 1 (Homo sapiens) (UniProt Q9NR56)
# Chain of UniProt Q9NR56 (Q9NR56 whole entry, looked up): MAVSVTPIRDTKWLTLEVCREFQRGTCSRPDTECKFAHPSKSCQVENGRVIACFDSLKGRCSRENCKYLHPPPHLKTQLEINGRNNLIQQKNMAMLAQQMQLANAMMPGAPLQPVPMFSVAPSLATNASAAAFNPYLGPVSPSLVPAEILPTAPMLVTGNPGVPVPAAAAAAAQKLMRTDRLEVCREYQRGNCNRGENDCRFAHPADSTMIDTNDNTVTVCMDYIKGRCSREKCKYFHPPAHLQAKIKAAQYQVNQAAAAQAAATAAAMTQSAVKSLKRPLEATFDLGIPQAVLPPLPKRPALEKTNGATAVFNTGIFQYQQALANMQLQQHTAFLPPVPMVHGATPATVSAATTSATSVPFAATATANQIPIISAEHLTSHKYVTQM
# Experiment: qHTS Assay for Inhibitors of MBNL1-poly(CUG) RNA binding
# Details: TR-FRET MBNL1-His/biotin-(CUG)12 binding, 665/545 ratio; series mostly up to 57.5 µM
# Method in brief: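 TR-FRET readout: Ex 340 nm, 665/545 nm emission ratio, normalized to buffer-only (basal) and MBNL1-(CUG)12 controls. Complex of MBNL1-His with Biotin-(CUG)12, compounds 92 nM–58 uM, incubated 60 min at room temperature.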
# Potency is the fitted concentration of half-maximal effect; tags give direction and shape of the fitted curve or compound fluorescence and quenching.
row,Structure (SMILES),Potency
1,CC(=O)N/C(=C\c1cccc([N+](=O)[O-])c1)C(=O)NC1CCCCC1,"inconclusive: 6.31 µM [quencher, side channel, full curve]"
2,CCCNC(=O)c1ccc(S(=O)(=O)c2ccc(OC)cc2)c([N+](=O)[O-])c1,"inconclusive: 11.2 µM [quencher, side channel, partial curve]"
3,Cc1ccc(S(=O)(=O)N2CCC(C(=O)NCCc3ccccn3)CC2)cc1,inactive
4,COc1cc2c(cc1OC)CN(C(=S)Nc1ccccc1Cl)CC2,inactive
5,CN(C)c1ccc(/C=N/OC(=O)Nc2ccccc2)cc1,"inconclusive: 22.4 µM [quencher, side channel, partial curve]"
6,Cc1cc(C(=O)N/N=C/C=C/c2ccccc2[N+](=O)[O-])c(C)o1,"inconclusive: 28.2 µM [quencher, side channel, partial curve]"
7,Fc1cccc(F)c1/C=N/NC(=S)Nc1cccnc1,inactive
8,CCOC(=O)C1=C(C)Nc2sc(C(=O)c3ccc(F)cc3)c(N)c2C1c1ccc(C(=O)OC)cc1 (stereo not drawn),inactive
9,CC(Sc1sc(=S)sc1SC(C)C(=O)O)C(=O)O (stereo not drawn),"inconclusive: 20 µM [quencher, side channel, single point]"
10,Cc1ccc(S(=O)(=O)N(C)C)cc1NC(=O)/C=C/c1cccs1,"inconclusive: 11.2 µM [quencher, side channel, partial curve, poor fit]"
11,COc1ccc(CN(CC2CCC(C(=O)O)CC2)C(=S)Nc2cc(C)ccc2C)cc1 (stereo not drawn),"inconclusive: 316 µM [inhibitor, partial curve]"
12,O=C(c1ccco1)N1CCN(Cc2cccc([N+](=O)[O-])c2)CC1,"inconclusive: 39.8 µM [quencher, side channel, single point]"
13,O=C(N/N=C/c1ccco1)c1ccc(N2CCCC2=O)cc1,"inconclusive: 15.8 µM [quencher, side channel, partial curve]"
14,O=C1CCCC2=C1Sc1ccccc1N2,"inconclusive: 35.5 µM [quencher, side channel, single point]"
15,Cn1nnc2c[n+](CC(=O)c3ccc(Cl)cc3)cc(Br)c21,"inconclusive: 20 µM [quencher, side channel, single point]"
16,CC1(C)CC(=O)C(N=Nc2ccc(S(=O)(=O)N3CCCCCC3)cc2)=C(O)C1,"inconclusive: 1.78 µM [quencher, side channel, full curve]"
17,COc1ccc(C)cc1S(=O)(=O)NCCC1=CCCCC1,inactive
18,N#C/C(=C(/O)c1ccc(F)cc1)c1nc2ccccc2s1,inactive
